According to paper PMC6212790:
The list shows a part of the results. At the low end of the ranking the order means little.
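Note: rank score from −0.5 (least bound) to 0.5 (best bound).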

Each sequence was assayed against T1, GST-Rok (full length) (UniProt O34857) (assay: protein binding microarray). Conditions: Rok is a gene silencer of Bacillus subtilis; high values mean tight binding; most listed sequences are background and not binding sites; double strand, one strand shown.
T1 sequence: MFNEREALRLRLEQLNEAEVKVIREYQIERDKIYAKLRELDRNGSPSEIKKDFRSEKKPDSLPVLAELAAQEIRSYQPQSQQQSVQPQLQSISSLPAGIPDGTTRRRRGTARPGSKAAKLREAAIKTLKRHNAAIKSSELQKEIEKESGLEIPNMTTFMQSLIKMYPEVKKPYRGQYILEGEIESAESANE
AAGGGAGT gave a binding signal of -0.131 E-score.
For GGCACTCA, the binding signal was -0.0412 E-score.
In the case of ATGAGACC, the binding signal is reported as -0.0922 E-score.
With AAAGCAAT the binding signal was 0.137 E-score.
For GCACTGGC, the binding signal was -0.154 E-score.
AATCGATC was tested, and the binding signal was 0.111 E-score.
ATTGGAAG was tested, and the binding signal was 0.0354 E-score.
ACCACTAT gave a binding signal of 0.112 E-score.
GTATCAGA gave a binding signal of 0.102 E-score.
In the case of GATACCAA, the binding signal is reported as 0.13 E-score.
In the case of AACAGTAT, the binding signal is reported as 0.262 E-score.
Sequence ACAGCTGC has a binding signal of -0.187 E-score.
Work on GGATATAC yielded a binding signal of 0.317 E-score.
Sequence CGGTATGC has a binding signal of -0.164 E-score.
AGTGTGTA gave a binding signal of 0.126 E-score.
In the case of AATTACGG, the binding signal is reported as 0.212 E-score.
CGCGGTAG was tested, and the binding signal was 0.00808 E-score.
AGATCCCT gave a binding signal of 0.0126 E-score.
Sequence CCTAACAC has a binding signal of -0.0857 E-score.
Sequence ATGGAGGA has a binding signal of -0.151 E-score.
Work on CGGGAGAG yielded a binding signal of -0.197 E-score.
CGTATAAC showed a binding signal of 0.138 E-score.
Sequence ACTCAAAT has a binding signal of 0.115 E-score.
With ACCGCGCC the binding signal was -0.253 E-score.
With GGAACAAC the binding signal was -0.0535 E-score.
CTATTCTA showed a binding signal of 0.128 E-score.
In the case of GACGTCGA, the binding signal is reported as -0.154 E-score.
AACGCTTC showed a binding signal of -0.265 E-score.
AAACGGTG showed a binding signal of 0.0437 E-score.
ATCACGCG was tested, and the binding signal was 0.0547 E-score.
ACAGCTAG was tested, and the binding signal was -0.00513 E-score.
Sequence GAATGATA has a binding signal of 0.304 E-score.
In the case of ATGAGATA, the binding signal is reported as 0.346 E-score.
Work on AGACGACC yielded a binding signal of -0.246 E-score.
Sequence CCTATGTC has a binding signal of 0.113 E-score.
For GATAGGTA, the binding signal was 0.26 E-score.
AGTCTAGG was tested, and the binding signal was -0.237 E-score.
In the case of GTGGTCAA, the binding signal is reported as -0.0982 E-score.
AGAACGGA was tested, and the binding signal was -0.066 E-score.
TTGCAAAA was tested, and the binding signal was -0.0231 E-score.
AGAGACGA showed a binding signal of -0.259 E-score.
AAACTTGG was tested, and the binding signal was -0.0876 E-score.
With CATTGCTA the binding signal was 0.114 E-score.
CAGGACTG was tested, and the binding signal was -0.179 E-score.
CGAGGTAG showed a binding signal of 0.203 E-score.
Work on CTGAACAG yielded a binding signal of -0.148 E-score.
In the case of AATACAGC, the binding signal is reported as 0.111 E-score.
For GCGTCAGC, the binding signal was -0.303 E-score.
For CTTGCGAC, the binding signal was -0.22 E-score.
For GTATATAC, the binding signal was 0.432 E-score.
For TCAAAAGA, the binding signal was -0.192 E-score.
Sequence TCGGAAGA has a binding signal of -0.11 E-score.
With CCGGGAAG the binding signal was -0.191 E-score.
ATTCGACA gave a binding signal of 0.0568 E-score.
For GGGATGAC, the binding signal was -0.0151 E-score.
Work on CATCTGTC yielded a binding signal of -0.261 E-score.
For GAGGACCC, the binding signal was -0.225 E-score.
Sequence AGAGCCCC has a binding signal of -0.351 E-score.
AGCGAAGC showed a binding signal of -0.219 E-score.
Work on GGCTCTGA yielded a binding signal of -0.197 E-score.
In the case of GGTTAGGA, the binding signal is reported as -0.222 E-score.
With ACCGATGA the binding signal was -0.00751 E-score.
AGGGTAAG gave a binding signal of -0.147 E-score.
AAATCCCG gave a binding signal of -0.0458 E-score.
Sequence CTTTGGAA has a binding signal of -0.132 E-score.
CGAAGACG showed a binding signal of -0.254 E-score.
With AAAAGCGG the binding signal was -0.0651 E-score.
GGGTCACC was tested, and the binding signal was -0.319 E-score.
For TACGCGGA, the binding signal was 0.135 E-score.
In the case of TACTACGA, the binding signal is reported as 0.275 E-score.
Sequence ATAAGGCG has a binding signal of -0.0829 E-score.
Work on ACGAAGTC yielded a binding signal of -0.00561 E-score.
With AACGCATG the binding signal was -0.00479 E-score.
GGAGCAGA gave a binding signal of -0.132 E-score.
AGATTGTA gave a binding signal of 0.285 E-score.
CATTGAGA showed a binding signal of -0.0127 E-score.
AGAGACAG showed a binding signal of -0.115 E-score.
In the case of GCATAACC, the binding signal is reported as 0.0212 E-score.
For CCCTGGTC, the binding signal was -0.264 E-score.
In the case of AAGAGCTG, the binding signal is reported as -0.0926 E-score.
ATTTTGGC was tested, and the binding signal was -0.0022 E-score.
For AGATCGTC, the binding signal was -0.0656 E-score.
Work on AGCGCCAT yielded a binding signal of -0.082 E-score.
With ACTGCACC the binding signal was 0.131 E-score.
Sequence TTATGAAA has a binding signal of 0.162 E-score.
CTTAATCC was tested, and the binding signal was -0.0703 E-score.
Work on CACACAGG yielded a binding signal of -0.201 E-score.
CAGCGACA gave a binding signal of 0.0869 E-score.
CCGCGGGC showed a binding signal of -0.359 E-score.
GCACAATA gave a binding signal of 0.247 E-score.
Sequence CCCCGTAG has a binding signal of -0.245 E-score.
ATACCTGG was tested, and the binding signal was 0.0327 E-score.
In the case of CCCGCTCG, the binding signal is reported as -0.254 E-score.
Work on AGCTAATC yielded a binding signal of 0.162 E-score.
With TACGAGTA the binding signal was 0.098 E-score.
Sequence AGGTCCGG has a binding signal of -0.288 E-score.
CGGTGACA was tested, and the binding signal was 0.0245 E-score.
For CACCAGGG, the binding signal was -0.358 E-score.
CTAGAATC showed a binding signal of 0.211 E-score.
Sequence AGTGTCCA has a binding signal of -0.0617 E-score.
AGCACATG showed a binding signal of -0.117 E-score.
Work on CGCCCACG yielded a binding signal of -0.271 E-score.
Sequence AAGAATAC has a binding signal of 0.0942 E-score.
For TGGGCCCA, the binding signal was -0.321 E-score.
ATTTGAAC was tested, and the binding signal was 0.149 E-score.
ACTCTGAG was tested, and the binding signal was -0.154 E-score.
CACGGTCA was tested, and the binding signal was -0.0115 E-score.
In the case of GTACAAAA, the binding signal is reported as 0.266 E-score.
In the case of CCGTACGA, the binding signal is reported as -0.0569 E-score.
In the case of ACCTTGTA, the binding signal is reported as -0.0398 E-score.
AAGATGGG was tested, and the binding signal was 0.0446 E-score.
For CTGACTGA, the binding signal was -0.122 E-score.
For CGGCGACC, the binding signal was -0.323 E-score.
Work on TACTATGA yielded a binding signal of 0.228 E-score.
Sequence AGGTACTG has a binding signal of 0.128 E-score.
GGCTGCGA gave a binding signal of -0.0711 E-score.
In the case of GATTTTGC, the binding signal is reported as 0.0176 E-score.
In the case of CTGCCCAC, the binding signal is reported as -0.168 E-score.
GAGTCCGA was tested, and the binding signal was -0.026 E-score.
CGTACTAC was tested, and the binding signal was 0.339 E-score.
For GAACAGCA, the binding signal was -0.149 E-score.
CTCTTCAG was tested, and the binding signal was -0.0656 E-score.
ATTCTGGG showed a binding signal of -0.155 E-score.
ATCATGAT was tested, and the binding signal was 0.0908 E-score.
GCCGGTAC gave a binding signal of -0.103 E-score.
Work on GATCAAGA yielded a binding signal of 0.066 E-score.
Work on CGTTAAGC yielded a binding signal of -0.167 E-score.
AGTCCGGG showed a binding signal of -0.313 E-score.
Sequence AATATACA has a binding signal of 0.388 E-score.
For GAGAACCA, the binding signal was -0.0434 E-score.
Sequence AGTCCACG has a binding signal of -0.173 E-score.
AGATCTAA showed a binding signal of 0.163 E-score.
ACCTTGCT gave a binding signal of -0.111 E-score.
CTTCGTTA gave a binding signal of 0.0316 E-score.
AGCTTCGG was tested, and the binding signal was -0.282 E-score.
In the case of ATGGTCCG, the binding signal is reported as -0.16 E-score.
ATGTTCGG gave a binding signal of -0.135 E-score.
CAACTGTA was tested, and the binding signal was 0.0765 E-score.
With AGCGTCAT the binding signal was -0.0894 E-score.
Work on AAGTATCC yielded a binding signal of 0.0627 E-score.
CTCCAAGC gave a binding signal of -0.344 E-score.
ATTTTAGC was tested, and the binding signal was 0.188 E-score.
In the case of ACCGACCA, the binding signal is reported as -0.202 E-score.
Sequence TCACGGGA has a binding signal of -0.221 E-score.
With GACCCAAC the binding signal was -0.245 E-score.
CGTGACTC gave a binding signal of -0.11 E-score.
GTGAGAGA was tested, and the binding signal was -0.123 E-score.
In the case of CAAGCTAC, the binding signal is reported as -0.00347 E-score.
With AACATTTG the binding signal was 0.0986 E-score.
ATGACGTC showed a binding signal of -0.0569 E-score.
Work on AAACCAGA yielded a binding signal of 0.00102 E-score.
AGTCAAAA gave a binding signal of 0.108 E-score.
Sequence GATTCCGC has a binding signal of -0.215 E-score.
With GAGTCATA the binding signal was -0.0124 E-score.
In the case of GCTGGAGA, the binding signal is reported as -0.105 E-score.
AACCAAAA showed a binding signal of 0.15 E-score.
With ACTCCGGG the binding signal was -0.202 E-score.
Work on AGAAGTAT yielded a binding signal of 0.334 E-score.
Sequence GGCCCCAA has a binding signal of -0.305 E-score.
Work on ACCCACCT yielded a binding signal of -0.0596 E-score.
AAGCCTAT showed a binding signal of 0.106 E-score.
ACACATGG showed a binding signal of 0.085 E-score.
With CATCGGCC the binding signal was -0.265 E-score.
CCCGCCCA was tested, and the binding signal was -0.119 E-score.
Work on CTATACGA yielded a binding signal of -0.0102 E-score.
CACCAGTC was tested, and the binding signal was -0.195 E-score.
ATACCGCG was tested, and the binding signal was 0.132 E-score.
ACTTTGTC showed a binding signal of -0.0997 E-score.
With ACAAAGCG the binding signal was -0.0938 E-score.
For TCGGGCAA, the binding signal was -0.0936 E-score.
With CGATGGTC the binding signal was -0.202 E-score.
AGCCAATG showed a binding signal of -0.117 E-score.
